# From the supplement of paper PMC12582362
# Counter-ions that a name gives are not always drawn. The whole screen tested about 1,500 compounds, of which about 30 (2%) showed activity.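 The calls were made as follows: active = robust z-score below -2; a few such results were not called.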 The list shows a part of the results.
# Test system: optoTopBP1 Flp-In 293 T-REx (HEK293) cells
# Assay: light-induced TopBP1 condensate (nuclear foci) count, plate-normalised robust z-score vs non-control wells; higher = more TopBP1 condensates (negative = condensation inhibitor), active = hit call of the paper
# Settings: 10 µM; incubation time 2 h
row,Structure (SMILES),light-induced TopBP1 condensate (z-score)
1,CNCCCC1c2ccccc2C=Cc2ccccc21 [Protriptyline hydrochloride],active: -2.86
2,C[C@]12CCC(=O)C=C1CC[C@@H]1[C@@H]2[C@@H](O)C[C@@]2(C)[C@H]1CC[C@]2(O)C(=O)CO [Hydrocortisone base],inactive: 1.03
3,Oc1ncnc2[nH]ncc12 [Allopurinol],inactive: -0.323
4,CC[N+]1(CC)CCC(=C(c2ccccc2)c2ccccc2)C1C (stereo not drawn) [Prifinium Bromide],inactive: 1.11
5,Cc1onc(-c2ccccc2)c1-c1ccc(S(N)(=O)=O)cc1 [Valdecoxib],inactive: -1.03
6,CCCc1cc(=O)[nH]c(=S)[nH]1 [Propylthiouracil],inactive: 0.311
7,C[N+]1(CCCCC[N+]2(C)CCCC2)CCCC1 [Pentolinium bitartrate],inactive: 0.307
8,C[C@]12CC[C@@H]3c4ccc(O)cc4CC[C@H]3[C@@H]1CC[C@@H]2O [Estradiol-17 beta],inactive: 1.04
9,CCCN(CCC)S(=O)(=O)c1ccc(C(=O)O)cc1 [Probenecid],inactive: 0.0454
10,CCN(CC)C(=O)c1cccnc1 [Nikethamide],inactive: -0.0769
11,COc1ccc2[nH]c([S+]([O-])Cc3ncc(C)c(OC)c3C)nc2n1 (stereo not drawn) [Tenatoprazole],inactive: -0.653
12,CN(C)CCOC(c1ccccc1)c1ccccc1 [Diphenhydramine hydrochloride],inactive: 1.14
13,CC(=O)[C@H]1CC[C@H]2[C@@H]3CCC4=CC(=O)CC[C@]4(C)[C@H]3CC[C@]12C [Progesterone],inactive: -0.788
14,NC(Cc1cc(I)c(Oc2cc(I)c(O)c(I)c2)c(I)c1)C(=O)O (stereo not drawn) [Thyroxine (L)],inactive: 0.348
15,CN(C)CC/C=C1/c2ccccc2Sc2ccc(Cl)cc21 [Chlorprothixene hydrochloride],inactive: -0.435
16,N=C(N)NC(=O)Cc1c(Cl)cccc1Cl [Guanfacine hydrochloride],inactive: 0.494
17,O=C(O)Cc1ccccc1Oc1ccc(Cl)cc1Cl [Fenclofenac],inactive: 1.07
18,Nc1ccn([C@@H]2O[C@H](CO)[C@@H](O)C2(F)F)c(=O)n1 [Gemcitabine],active: -2.33
19,CN1C(=O)CC(c2ccccc2)C1=O (stereo not drawn) [Phensuximide],inactive: 0.398
20,CN(C)CCN(Cc1ccccc1)c1ccccn1 [Tripelennamine hydrochloride],inactive: -0.381
21,CC1CNc2c(cccc2S(=O)(=O)N[C@@H](CCCNC(=N)N)C(=O)N2CC[C@@H](C)C[C@@H]2C(=O)O)C1 (stereo partly drawn) [Argatroban],inactive: -0.152
22,CC(=O)O[C@@]12CO[C@@H]1C[C@H](O)[C@@]1(C)C(=O)[C@H](O)C3=C(C)[C@@H](OC(=O)[C@H](O)[C@@H](NC(=O)OC(C)(C)C)c4ccccc4)C[C@@](O)([C@@H](OC(=O)c4ccccc4)[C@H]21)C3(C)C [Docetaxel],inactive: -1.72
23,Clc1ccc(CSC(Cn2ccnc2)c2ccc(Cl)cc2Cl)cc1 (stereo not drawn) [Sulconazole nitrate],inactive: -0.2

row,Structure (SMILES),light-induced TopBP1 condensate (z-score)
1,CCCc1c2oc(C(=O)O)cc(=O)c2cc2c(=O)cc(C(=O)O)n(CC)c12 [Nedocromil sodium],inactive: -0.37
2,C#C[C@]1(OC(C)=O)CC[C@H]2[C@@H]3CCC4=CC(=NO)CC[C@@H]4[C@H]3CC[C@@]21CC (mixture of isomers) [Norgestimate],inactive: 0.108
3,CC(=O)Oc1ccc(C(=C2CCCCC2)c2ccc(OC(C)=O)cc2)cc1 [Cyclofenil],inactive: -0.651
4,CC(=O)O[C@]1(C(C)=O)CC[C@H]2[C@@H]3C=C(Cl)C4=CC(=O)[C@@H]5C[C@@H]5[C@]4(C)[C@H]3CC[C@@]21C [Cyproterone acetate],inactive: 0.713
5,Clc1ccc(CO/N=C(\Cn2ccnc2)c2ccc(Cl)cc2Cl)c(Cl)c1 [Oxiconazole Nitrate],inactive: 1.32
6,CCCSc1nc(N[C@@H]2C[C@H]2c2ccc(F)c(F)c2)c2nnn([C@@H]3C[C@H](OCCO)[C@@H](O)[C@H]3O)c2n1 [Ticagrelor],inactive: -0.733
7,CC(=O)OC[C@H]1O[C@@H](n2ncc(=O)[nH]c2=O)[C@H](OC(C)=O)[C@@H]1OC(C)=O [Azaribine],inactive: 0.84
8,O=C(O)COCCN1CCN(C(c2ccccc2)c2ccc(Cl)cc2)CC1 (stereo not drawn) [Cetirizine dihydrochloride],inactive: 0.614
9,N[C@@H]1CONC1=O [D-cycloserine],inactive: 0.143
10,N=C(N)Nc1ccc(C(=O)Oc2ccc3cc(C(=N)N)ccc3c2)cc1 [Nafamostat Mesylate],inactive: 1.49
11,Clc1ccc(Cn2c(CN3CCCC3)nc3ccccc32)cc1 [Clemizole hydrochloride],inactive: -0.267
12,COc1cc2nc(N(C)CCCNC(=O)C3CCCO3)nc(N)c2cc1OC (stereo not drawn) [Alfuzosin hydrochloride],inactive: 0.142
13,CC(=O)Oc1ccccc1C(=O)O [Acetylsalicylic acid],inactive: -0.801
14,N=C(N)NS(=O)(=O)c1ccc(N)cc1 [Sulfaguanidine],inactive: -0.0573
15,CC1=C(/C=C/C(C)=C/C=C/C(C)=C/C(=O)O)C(C)(C)CCC1 [Retinoic acid],inactive: -0.822
16,NC(=O)c1cc[n+](CC2=C(C(=O)[O-])N3C(=O)[C@@H](NC(=O)[C@@H](c4ccccc4)S(=O)(=O)O)[C@H]3SC2)cc1 [Cefsulodin sodium salt],inactive: 0.128
17,CCc1c(C)[nH]c2c1C(=O)C(CN1CCOCC1)CC2 (stereo not drawn) [Molindone hydrochloride],inactive: 1.21
18,N[C@@H](CCC(=O)N[C@@H](CS)C(=O)NCC(=O)O)C(=O)O [Glutathione],inactive: 1.35
19,CC1=C(C(=O)O)N2C(=O)[C@@H](NC(=O)[C@H](N)C3=CCC=CC3)[C@H]2SC1 [Cephradine monohydrate],inactive: -0.619
20,CCC1(c2ccccc2)NC(=O)N(C)C1=O (stereo not drawn) [Mephenytoin],inactive: 0.477
21,Cc1ncc(CO)c(CO)c1O [Pyridoxine hydrochloride],inactive: -0.223
22,CCN(CC)CCOC(=O)c1ccc(N)cc1 [Procaine hydrochloride],inactive: 0.888
23,CC[C@H](C)C(=O)O[C@H]1C[C@@H](C)C=C2C=C[C@H](C)[C@H](CC[C@@H]3C[C@@H](O)CC(=O)O3)[C@H]21 [Lovastatin],inactive: 0.482

row,Structure (SMILES),light-induced TopBP1 condensate (z-score)
1,Cc1c(C)c2c(c(C)c1O)CCC(C)(C(=O)O)O2 (stereo not drawn) [Trolox],inactive: -0.219
2,CC(=O)N[C@@H](CS)C(=O)O [Acetylcysteine],inactive: 1.19
3,CC(=O)O[C@H]1C[C@@]2(C)[C@@H](C[C@@H](O)[C@H]3[C@@]4(C)CC[C@@H](O)[C@@H](C)[C@@H]4CC[C@@]32C)/C1=C(\CCC=C(C)C)C(=O)O [Fusidic acid sodium salt],inactive: 0.0039
4,CN(C)CCn1nnnc1SCC1=C(C(=O)O)N2C(=O)[C@@H](NC(=O)Cc3csc(N)n3)[C@H]2SC1 [Cefotiam hydrochloride],inactive: 1.13
5,Nc1ccc(S(=O)(=O)Nc2cnc3ccccc3n2)cc1 [Sulfaquinoxaline sodium salt],inactive: 1.12
6,CNC[C@H](O)[C@@H](O)[C@H](O)[C@H](O)CO [Meglumine],inactive: -0.735
7,NCCCC(O)(P(=O)(O)O)P(=O)(O)O [Alendronate sodium],inactive: -0.706
8,NC(=O)OCC(COC(N)=O)c1ccccc1 [Felbamate],inactive: -0.832
9,Cc1ccnc(NS(=O)(=O)c2ccc(N)cc2)n1 [Sulfamerazine],inactive: 1.3
10,C[C@H]1NC(=O)NC1=O [Methylhydantoin-5-(D)],inactive: -0.483
11,N=C(N)NCc1cccc(I)c1 [Iobenguane sulfate],inactive: 0.0541
12,CC(C)(C)c1ccc(C(=O)CCCN2CCC(OC(c3ccccc3)c3ccccc3)CC2)cc1 [Ebastine],inactive: -0.957
13,CNC(=O)c1c(I)c(C(=O)NCC(=O)Nc2c(I)c(C(=O)O)c(I)c(C(=O)NCCO)c2I)c(I)c(N(C)C(C)=O)c1I [Ioxaglic acid],inactive: 1.43
14,CCCCNc1cc(C(=O)O)cc(S(N)(=O)=O)c1Oc1ccccc1 [Bumetanide],inactive: -0.602
15,CCOC(=O)[C@H](CCc1ccccc1)N[C@@H](C)C(=O)N(CC(=O)O)C1Cc2ccccc2C1 [Delapril Hydrochloride],inactive: 0.988
16,CC(=O)Oc1ccccc1C(=O)Oc1ccccc1C(=O)O [Acetylsalicylsalicylic acid],inactive: 0.617
17,Cn1cc(C(=O)[C@@H]2CCc3[nH]cnc3C2)c2ccccc21 [Ramosetron hydrochloride],inactive: -0.549
18,CC(C)NC[C@H](O)COc1cccc2ccccc12 [(S)-propranolol hydrochloride],inactive: 1.1
19,CC(=O)CCCCn1c(=O)c2c(ncn2C)n(C)c1=O [Pentoxifylline],inactive: -0.0825
20,CN1C(=O)OC(C)(C)C1=O [Trimethadione],inactive: 0.285
21,CN(C/C=C/c1ccccc1)Cc1cccc2ccccc12 [Naftifine hydrochloride],inactive: 0.672
22,OCCN1CCN(CCCN2c3ccccc3C=Cc3ccccc32)CC1 [Opipramol dihydrochloride],inactive: -0.102
